Test results as given in US11479587B2, “Cationic intrinsically disordered antimicrobial peptides” (priority 2016, dated 2022).
Converted amounts (≈) assume the structure as drawn. At least one peptide structure holds a part that was inferred or is arguable (an end, a ring closure or a residue). Some compounds share one wording; it may come from a single statement. Residues, ends and D or L forms follow the SMILES beside them.

Key:
[1] = system: P. aeruginosa ATCC 10145; experiment: CFU-assay, P. aeruginosa-cidal activity; type: cell-based, Pseudomonas aeruginosa; settings: pH 5.5, 0.25% glucose
[2] = system: methicillin-resistant S. aureus strain (ATCC 43300); type: cell-based, Staphylococcus aureus; settings: Mueller-Hinton medium, 37° C., 18 h, resazurin
Method: Furthermore, sensitivity of a methicillin-resistant S. aureus strain (ATCC 43300) was investigated for palmitoylated CIDAMPs in a microtiter plate screening model, with incubation in Mueller-Hinton medium at 37° C. for 18 h using resazurin as a marker for cell viability.
A sample of each culture was then diluted 40-fold in fresh broth and incubated at 37° C. for 1.5-3 h. […] All the plates were covered and incubated at 37° C. for 18 h.
Inhibition of bacterial growth was determined using resazurin as a marker for cell viability. Resazurin was added to each well, at 0.001% final concentration, and plates incubated at 37° C. for 2 h. Fluorescence intensity was measured, using F (top read), ex 560/10 nm, em 590/10 nm, using a Tecan M1000 Pro monochromator plate reader.

[3] = system: C. albicans ATCC 928; settings: standard conditions at pH 7.4; activity at concentration <32 pg/ml
[4] = system: C. neoformans; settings: standard conditions at pH 7.4; activity at concentration <32 pg/ml

## CCCCCCCCCCCCCCCC(=O)N[C@@H](CCCNC(=N)N)C(=O)NCC(=O)N[C@@H](CO)C(=O)N[C@@H](CCCNC(=N)N)C(=O)N[C@@H](CO)C(=O)NCC(=O)N[C@@H](CCC(N)=O)C(=O)N[C@@H](CO)C(=O)N[C@@H](CO)C(=O)N[C@@H](CCCNC(=N)N)C(=O)NCC(=O)N[C@@H](CCC(=O)O)C(=O)N[C@@H](CCCNC(=N)N)C(=O)N[C@@H](CCCNC(=N)N)C(=O)O [Pal-HR 1-11 2H2R-14] (HELM PEPTIDE1{[CCCCCCCCCCCCCCCC(=O)[*:2]].R.G.S.R.S.G.Q.S.S.R.G.E.R.R}$$$$V2.0)
[1]
  MBC90: 0.038 µg/mL (≈ 0.0209 µM)
  MBC100: 0.15 µg/mL (≈ 0.0827 µM)
[2]
  killing of MRSA strain (in words): able to kill this MRSA-strain at low μg/ml or high ng/ml concentration
[3]
  Antifungal activity, C. albcans ATCC90028: I (I-inactive)
[4]
  Antifungal activity, C. neoformans ATCC 208821: A (A-active)
